Among all 310,000 compounds or so, about 14,000 (4.5%) showed an effect of 50% or more. Effects have a minus sign here. Some of the results follow.
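Further: peak tail current of the secondary pulse compared with the same well before compound.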

Chain of human ether-à-go-go-related gene (hERG) potassium channel (Q12809 whole entry, looked up): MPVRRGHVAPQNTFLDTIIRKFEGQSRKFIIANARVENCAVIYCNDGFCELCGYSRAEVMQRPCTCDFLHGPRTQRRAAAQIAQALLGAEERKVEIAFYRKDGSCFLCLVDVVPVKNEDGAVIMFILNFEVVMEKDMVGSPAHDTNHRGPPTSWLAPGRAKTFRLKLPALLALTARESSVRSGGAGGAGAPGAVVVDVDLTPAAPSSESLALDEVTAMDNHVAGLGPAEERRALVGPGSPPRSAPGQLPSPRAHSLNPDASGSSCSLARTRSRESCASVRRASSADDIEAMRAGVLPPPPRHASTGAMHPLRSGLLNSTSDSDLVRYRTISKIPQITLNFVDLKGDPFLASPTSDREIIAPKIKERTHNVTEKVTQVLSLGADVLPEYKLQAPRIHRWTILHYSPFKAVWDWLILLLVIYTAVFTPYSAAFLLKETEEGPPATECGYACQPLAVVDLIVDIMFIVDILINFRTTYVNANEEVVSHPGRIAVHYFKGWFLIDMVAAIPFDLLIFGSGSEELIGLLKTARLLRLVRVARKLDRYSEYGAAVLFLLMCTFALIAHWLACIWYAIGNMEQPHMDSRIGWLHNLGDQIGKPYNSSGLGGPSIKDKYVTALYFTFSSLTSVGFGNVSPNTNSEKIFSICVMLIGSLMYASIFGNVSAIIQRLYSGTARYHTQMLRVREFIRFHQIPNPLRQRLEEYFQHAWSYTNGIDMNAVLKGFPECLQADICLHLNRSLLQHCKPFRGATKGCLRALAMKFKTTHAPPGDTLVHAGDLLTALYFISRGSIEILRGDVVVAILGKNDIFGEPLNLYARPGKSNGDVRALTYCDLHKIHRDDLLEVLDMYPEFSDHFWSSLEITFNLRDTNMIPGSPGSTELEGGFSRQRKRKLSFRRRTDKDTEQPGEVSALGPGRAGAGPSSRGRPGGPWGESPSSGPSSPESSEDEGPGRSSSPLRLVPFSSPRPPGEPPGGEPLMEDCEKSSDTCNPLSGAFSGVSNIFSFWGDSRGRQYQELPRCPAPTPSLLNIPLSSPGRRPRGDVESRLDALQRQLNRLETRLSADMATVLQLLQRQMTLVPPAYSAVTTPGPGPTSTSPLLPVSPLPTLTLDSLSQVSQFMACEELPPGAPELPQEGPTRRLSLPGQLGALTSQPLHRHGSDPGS

The experiment has as its target human ether-à-go-go-related gene (hERG) potassium channel (human, UniProt Q12809). Kind of experiment: primary screen, population patch clamp on CHO cells stably expressing hERG.
Consider `CNC(=O)c1[nH]cnc1C(=O)Nc1cccc(C)c1`, for which the “hERG current change (%, negative = inhibition) at 10uM” value was -9.12%.

For `CCN(CC)S(=O)(=O)c1ccc2oc(C(=O)N3CCOCC3)c(C)c2c1`, the “hERG current change (%, negative = inhibition) at 10uM” value was -23.3%.

As for `COC(=O)c1ccc(-c2noc(CN(Cc3ccncc3)CC3CCCO3)n2)cc1` (stereo not drawn), the “hERG current change (%, negative = inhibition) at 10uM” value is given as -28.5%.

In the case of `O=C(CSc1ccc(-c2ccncc2)nn1)N1CCCCC1`, the “hERG current change (%, negative = inhibition) at 10uM” value is recorded as -3.95%.

With `CC1CN(C(=O)CN2C(=O)c3ccccc3C2=O)CC(C)O1` (stereo not drawn), the “hERG current change (%, negative = inhibition) at 10uM” value is reported as 6.42%.

Consider `Cc1ccc(C(=O)c2ccc(O)cc2)cc1C`, for which the “hERG current change (%, negative = inhibition) at 10uM” value is -1.24%.

Take `Cc1cc(C(=O)NCc2ccc(S(N)(=O)=O)cc2)c(C)o1`: the “hERG current change (%, negative = inhibition) at 10uM” value came to 6.23%.

Consider `CC(C)(C)C(CO)NC(=O)c1ccc[nH]1` (stereo not drawn), for which the “hERG current change (%, negative = inhibition) at 10uM” value was determined as 2.26%.

Regarding `Clc1cccc(Cl)c1C[n+]1cccc2ccccc21.[Br-]`, the “hERG current change (%, negative = inhibition) at 10uM” value worked out at 1.36%.

In the case of `N#C/C(=C\c1ccc(O)cc1)C(=O)NCc1ccccc1`, the “hERG current change (%, negative = inhibition) at 10uM” value stood at 8.49%.

Regarding `Clc1cccc(NCc2nnc(SCc3ccccc3)o2)c1`, the “hERG current change (%, negative = inhibition) at 10uM” value came out at 3.21%.

Regarding `COc1ccccc1NC(=O)Cc1nnc(SCC(=O)c2ccc(F)cc2)n1C`, the “hERG current change (%, negative = inhibition) at 10uM” value is -16.3%.

As for `COc1ccc(CNc2ncc(-c3ccccc3)n2C)cc1`, the “hERG current change (%, negative = inhibition) at 10uM” value was -32.6%.

As to `CCSc1nc(O)cc(=O)n1-c1ccc(OC)cc1`, the “hERG current change (%, negative = inhibition) at 10uM” value is 3.73%.

Consider `O=C(COC(=O)c1ccc(Br)o1)NCC1CCCO1` (stereo not drawn), for which the “hERG current change (%, negative = inhibition) at 10uM” value is given as 0.0397%.

As to `COCCNC(=O)c1ccc2c(c1)S(=O)(=O)c1cc(Cl)ccc1C2=O`, the “hERG current change (%, negative = inhibition) at 10uM” value is on record as -3.38%.

Turning to `O=C(c1ccccc1Cl)N1CCN(Cc2ccc3c(c2)OCO3)CC1`, the “hERG current change (%, negative = inhibition) at 10uM” value is recorded as -21.1%.

As for `COc1cc(/C=N/n2c(C)nnc2C)cc(OC)c1OC`, the “hERG current change (%, negative = inhibition) at 10uM” value was found to be 3.79%.

For the compound `O=C1CCN(CCc2ccccc2)CCN1[C@H](CO)c1ccccc1`, the “hERG current change (%, negative = inhibition) at 10uM” value is listed as -25.7%.

As for `O=C1CCC(c2ccc(-n3ccnc3)cc2)=NN1`, the “hERG current change (%, negative = inhibition) at 10uM” value is given as -3.95%.

On to `Cn1c(SCc2c(F)cccc2Cl)nc2c(c1=O)SCC2`, for which the “hERG current change (%, negative = inhibition) at 10uM” value is recorded as 6.6%.

For the compound `Fc1ccc(OCCCCCn2ccnc2)cc1`, the “hERG current change (%, negative = inhibition) at 10uM” value was -18.4%.

Regarding `Cc1sc2ncn3ncnc3c2c1C`, the “hERG current change (%, negative = inhibition) at 10uM” value is given as 10.1%.

On to `O=C(COC(=O)/C=C/c1cccc(Cl)c1)Nc1ccc2[nH]c(=O)[nH]c2c1`, for which the “hERG current change (%, negative = inhibition) at 10uM” value was 12.9%.

As for `C/C(=N\NC(=O)c1cccnc1)c1cccc([N+](=O)[O-])c1`, the “hERG current change (%, negative = inhibition) at 10uM” value is on record as -1.65%.

Take `Cc1cccc(NC(=O)CN(C)S(=O)(=O)c2ccc(Cl)cc2)n1`: the “hERG current change (%, negative = inhibition) at 10uM” value is -6.82%.

With `COc1ccc(CN2CCNC(=O)C2CC(=O)N(C)Cc2nonc2C)c(F)c1` (stereo not drawn), the “hERG current change (%, negative = inhibition) at 10uM” value stood at 2.46%.

With `Cc1cc(C(=O)N/N=C2\CC(=O)CC(C)(C)C2)c(C)n1-c1ccccc1`, the “hERG current change (%, negative = inhibition) at 10uM” value stood at 28.9%.

Consider `CC(C)(C)C1CCC2(CC1)C(Nc1cccc(C(F)(F)F)c1)=NC(=S)N2CC#N` (stereo not drawn), for which the “hERG current change (%, negative = inhibition) at 10uM” value was 5.17%.

With `CC(C)CSc1n[nH]c(=S)s1`, the “hERG current change (%, negative = inhibition) at 10uM” value came out at 15.6%.

As to `c1ccc(Oc2cccc(CN3CCCCC3)c2)cc1`, the “hERG current change (%, negative = inhibition) at 10uM” value was -45.9%.

On to `Nc1nnc(SCC(=O)NC2CCCCC2)n1-c1ccccc1`, for which the “hERG current change (%, negative = inhibition) at 10uM” value amounted to 6.78%.

Turning to `CCCCNS(=O)(=O)c1ccc(S(=O)(=O)N2CCC3(CC2)OCCO3)cc1`, the “hERG current change (%, negative = inhibition) at 10uM” value was found to be 9.82%.

As to `COC(=O)Cc1ccc(N(Cc2ccccc2F)S(=O)(=O)c2ccc(Cl)cc2)cc1`, the “hERG current change (%, negative = inhibition) at 10uM” value was found to be 4.17%.

`COc1cccc2cc(C(=O)N3CCCc4ccccc43)oc12`: the “hERG current change (%, negative = inhibition) at 10uM” value was -16.8%.

Turning to `Cc1nc2ccc(S(=O)(=O)NCC(=O)N3CCOCC3)cc2s1`, the “hERG current change (%, negative = inhibition) at 10uM” value was 6.43%.

With `CC(C)[C@@H](C(=O)N1CCNCC1)n1cc(CCO)nn1.Cl`, the “hERG current change (%, negative = inhibition) at 10uM” value came to 12.8%.

For the compound `COC(=O)C1=C(c2ccc3ccccc3c2)C[C@@H]2CC[C@H]1N2C(=O)NCC1CC1`, the “hERG current change (%, negative = inhibition) at 10uM” value is -6.28%.

In the case of `O=C(CCC(=O)c1ccccc1)NCc1ccccc1`, the “hERG current change (%, negative = inhibition) at 10uM” value is recorded as -10%.

On to `CC(=O)Oc1ccccc1C1=NN(C(=O)/C=C/c2ccccc2)C(c2ccccc2)C1` (stereo not drawn), for which the “hERG current change (%, negative = inhibition) at 10uM” value was -8.93%.

Consider `c1cnn(Cc2cnc(N3CCOCC3)s2)c1`, for which the “hERG current change (%, negative = inhibition) at 10uM” value was 27.7%.

Turning to `CCOc1ccc(NC(=O)NC2CC(=O)N(c3ccc(OC)cc3)C2)cc1` (stereo not drawn), the “hERG current change (%, negative = inhibition) at 10uM” value was -4.43%.

With `CC1CCCCN1CCNC(=O)C1CCN(S(=O)(=O)c2cccc3nsnc23)CC1` (stereo not drawn), the “hERG current change (%, negative = inhibition) at 10uM” value stood at 2.44%.

Consider `Cc1cccn2c(=O)c(/C=C(\C#N)C(N)=O)c(Oc3ccccc3)nc12`, for which the “hERG current change (%, negative = inhibition) at 10uM” value is listed as -8.99%.

As to `CCCOc1ccc(/C=N/NC(=S)Nc2ccccc2[N+](=O)[O-])c(O)c1`, the “hERG current change (%, negative = inhibition) at 10uM” value was 24.3%.

These data come from PMC4336329 (PLoS ONE, 2015).
